# Laboratory results reported in article PMC6919601, “Identification of Plasmodium dipeptidyl aminopeptidase allosteric inhibitors by high throughput screening” (PLoS ONE, 2019).
# Among all 110,000 compounds or so, about 230 (0.21%) showed an effect of 50% or more. The list shows a part of the results.
# Target: DPAP1 (Plasmodium falciparum, UniProt Q8IIJ9)
# Test: primary screen, percent inhibition; read by cleavage of a fluorogenic dipeptide substrate; higher = more effect of the substance
# Set-up: species or system P. falciparum D10 trophozoite lysates; single well
# 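Note: 30 min substrate incubation versus DMSO and 10 µM JCP410 controls.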
# DPAP1, sequence (Q8IIJ9 whole entry, looked up): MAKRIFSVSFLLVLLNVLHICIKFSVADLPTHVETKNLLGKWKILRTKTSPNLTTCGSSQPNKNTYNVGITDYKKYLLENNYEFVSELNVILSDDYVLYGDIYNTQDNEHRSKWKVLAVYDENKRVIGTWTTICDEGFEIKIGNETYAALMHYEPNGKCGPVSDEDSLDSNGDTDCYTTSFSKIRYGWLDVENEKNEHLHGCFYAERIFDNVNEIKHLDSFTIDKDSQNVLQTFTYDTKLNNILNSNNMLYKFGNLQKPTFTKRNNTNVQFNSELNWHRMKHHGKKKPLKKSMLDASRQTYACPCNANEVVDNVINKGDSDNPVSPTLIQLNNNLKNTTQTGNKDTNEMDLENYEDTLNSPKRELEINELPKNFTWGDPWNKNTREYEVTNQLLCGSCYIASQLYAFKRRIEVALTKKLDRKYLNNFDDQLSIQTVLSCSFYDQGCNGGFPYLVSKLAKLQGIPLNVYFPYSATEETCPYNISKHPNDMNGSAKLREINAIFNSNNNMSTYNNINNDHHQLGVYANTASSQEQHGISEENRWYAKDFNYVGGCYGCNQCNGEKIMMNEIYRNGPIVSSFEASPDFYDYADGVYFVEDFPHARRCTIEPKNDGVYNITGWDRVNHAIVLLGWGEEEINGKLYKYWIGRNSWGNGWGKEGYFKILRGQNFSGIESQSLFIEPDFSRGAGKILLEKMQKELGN
row,SMILES,% Inhibition @ 10 uM [%]
1,CCc1nn(CC(=O)NCCCN(C)C2CCCCC2)c(=O)c2cc3sccc3n12,-7.1
2,O=C1CCCC2=C1C(c1ccco1)C1=C(O)c3ccccc3C1=N2 (stereo not shown),4.28
3,CC(=O)c1ccc(-c2ccc(/C=C3/SC(=O)N(CC(=O)N4CCCC4)C3=O)o2)cc1,-5.66
4,O=C(CSc1nc(-c2ccc(F)cc2)cc(C(F)(F)F)n1)NCc1cccnc1,-2.09
5,C=CCOc1ccc(/C=C2/SC(=O)N(CN3CCCCC3)C2=O)cc1OC,2.65
6,CC1CCN(c2nc3ccc(C(=O)NC4CCCCC4)cc3s2)CC1,6.31
7,COc1cccc(/C=C2\SC(=O)N(CC(=O)N3CCN(c4ccccc4)CC3)C2=O)c1O,2.01
8,Cc1sc2ncn(CC(=O)O)c(=O)c2c1S(=O)(=O)N1CCOCC1,0.231
9,CCOC(=O)c1c(NC(=O)CSc2nc3ccccc3s2)sc2c1CCN(C)C2,7.1
10,Cc1ccc(C(=O)Nc2nc(-c3ccc4c(c3)Cc3ccccc3-4)cs2)cc1,2.22
11,COc1ccc(S(=O)(=O)N2CCn3c2nc2ccccc23)cc1,2
12,CCOc1ccc(S(=O)(=O)N(CC(=O)N(C)C)c2ccc(C)cc2)cc1,0.324
13,O=C(CCCOc1ccccc1)Nc1nccs1,-12.3
14,CCC1CCCCN1C(=O)CSc1nc2ncccc2o1 (stereo not shown),-5.79
15,COc1ccccc1C(=O)Nc1cccc(C(C)=O)c1,-6.17
16,CCn1nccc1C(=O)NC1CCCCCC1,3.9
17,Cn1cnc([N+](=O)[O-])c1C(=O)Nc1cccc([N+](=O)[O-])c1,-0.424
18,O=C(Nc1ccccc1C(=O)N1CCNCC1)c1ccco1,-6.25
19,Cc1c(C(=O)N2CCC3(CC2)OCCO3)oc2ccc(S(=O)(=O)N(C)C3CCCCC3)cc12,14.5
20,CC(C)(C)c1ccc(CN2C3=NCCCN3c3ccccc32)cc1,-5.16
21,CCC(C)N1CCN(Cc2cccc(C)c2)CC1 (stereo not shown),-7.18
22,CC1CCCCC1NCc1ccco1 (stereo not shown),1.84
23,CCN(CC)CCCNC(=O)c1ccc(N2Cc3cccc(OC)c3Oc3ncccc32)s1,-4.52
24,Cc1ccccc1C(=O)NCC(C)NC(=O)c1ccccc1C (stereo not shown),0.408
25,Cc1cc(Oc2c(C(F)(F)F)oc3c(CN4CCOCC4)c(O)ccc3c2=O)cc(C)c1Cl,-4.85
26,O=C(c1ccco1)N1CCN(S(=O)(=O)c2ccc(-c3cc(C(F)(F)F)no3)s2)CC1,1.2

row,SMILES,% Inhibition @ 10 uM [%]
1,O=C(c1ccco1)N1CCN(CCN2CCCCC2)CC1,9.75
2,CCN(CC)CCn1c2ccccc2n2c(C(C)=O)c(C)nc12,2.14
3,Oc1nc(N2CCCCC2)nc2ncn(Cc3ccccc3)c12,5.3
4,O=S(=O)(c1ccc(Cl)nc1)N1CCc2ccccc21,-1.88
5,CCCCOc1ccc(/C=C(\C#N)c2nc(-c3ccc(Cl)cc3)cs2)cc1,-0.736
6,O=S(=O)(c1cnccc1Nc1cccc(C(F)(F)F)c1)N1CCOCC1,0.0285
7,O=C(CCc1ccc(S(=O)(=O)NCc2ccccc2)cc1)NC1CCCCC1,3.72
8,COc1ccc(NC(=O)c2ccccn2)cc1,1.39
9,Cc1nc2nc(C)c(CCC(=O)NCCC3=CCCCC3)c(C)n2n1,1.26
10,O=S(=O)(Nc1cccc2cccnc12)c1ccc2ccccc2c1,-1.28
11,COc1ccc2nc(O)c(-c3ccccc3)c(O)c2c1,-1.6
12,COc1ccc([C@H]2NCC[C@@]3(O)CCCC[C@H]23)c(OC)c1OC,-5.5
13,COc1cc(C(=O)N2N=C(C(F)F)CC2(O)C(F)F)ccc1O (stereo not shown),9.65
14,CC(=O)Nc1ccc(Nc2nc(-c3c(C)nc4ccccn34)cs2)cc1,-4.06
15,Cc1cc(C)n(CCc2nc3c4ccccc4nc(SCC(=O)c4ccc(F)cc4)n3n2)n1,3.38
16,CN1CCN(c2c(C(=O)c3ccccc3)cnc3ccc(Cl)cc23)CC1,-7.48
17,Cc1cc(Cl)ccc1OCC(O)CN1CCCC1 (stereo not shown),-2.97
18,O=C(Nc1cccc(C(F)(F)F)c1)C12CC3CC(CC(C3)C1)C2,-5.81
19,Cc1ccc2[nH]c(C)c(CCC(=O)NC3CCCCC3)c2c1,-1.86
20,COc1ccc(Nc2cccc(Cl)c2)c(C(=O)O)c1,1.72
21,CCOC(=O)c1c(NC(=O)c2cc3nc(-c4ccco4)cc(C(F)(F)F)n3n2)sc(C)c1C,0.64
22,OCCCNc1c2c(nc3ccccc13)CCCC2,-4.6
23,CC(NC(=O)Cn1ncc2ccsc2c1=O)C12C[C@H]3C[C@@H](C1)C[C@@H](C2)C3 (stereo partly shown),0.236
24,CCc1ccccc1/N=C/C1=C(O)CC(c2ccccc2)CC1=O (stereo not shown),0.673
25,Cc1ccc2onc(CNC(=O)NC(C)CCc3ccco3)c2c1 (stereo not shown),5.27
26,O=C(O)C#CC(O)(c1ccccc1)c1ccccc1,-3.62
